# Data taken from the supplement of paper PMC11417369.
# ± gives the standard deviation of the averaged measurements. The list shows a part of the results.
# Tested on: PfAP2-EXP AP2 domain (GST-tagged)
# Test: gcPBM binding intensity (ln(normalized median fluorescence intensity)); higher = stronger DNA binding
# Summary of the method: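 Using an Agilent 4 × 180k array, primer-extended double-stranded 36-bp intergenic genomic probes and negative controls were exposed for 1 h to GST-fused P. falciparum DNA-binding domains expressed in E. coli. Binding was carried out in 1× PBS with 1% milk, 0.2 mg/ml BSA, 0.5% salmon testes DNA and 0.03% Triton X-100, and protein was detected with Alexa488 anti-GST antibody and a 488 nm scan. Binding intensity is the highest Masliner-normalised natural-log median intensity across replicate spots of either probe orientation.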
row,Sequence,gcPBM binding intensity (ln)
1,GTTATATATATATATATATATATATATATTTTTTTT [GTGCAC_negctrl_site597],8.84 ± 0.15
2,TATATCGTTAATTATACACACATAAAATTAAACTTT [CACACA_site1274],8.25 ± 0.21
3,AAAAACCATGGGCACACACACATAATATATAATATA [CACACA_site1425],8.89 ± 0.55
4,TAAAAAAAGGAAAACATACAATTCTATTTTTCAATA [CACACA_negctrl_site474],8.12 ± 0.46
5,AAATTAAAAAAGAATATACACACCAAAACTGTTTGT [CACACA_site958],8.25 ± 0.45
6,TATAATAATACTTATTGTACGATTAGCTTAATTCGT [XGTACX_site15],8.32 ± 0.35
7,TATATAAATAGATACACACATACATACATACATACA [CACACA_site260],9.16 ± 0.16
8,ACCATACATACATACACACACACACGCATATTTATA [CACACA_site7386],9.05 ± 0.6
9,TAATTTTAAATATCTTCACACATTATATTTTTATAT [CACACA_site5411],8.34 ± 0.42
10,AAGTAGTGTTAATACTGTACTTATATTTTTTATTAT [XGTACX_site8264],8.33 ± 0.18
11,TCATCTTTTATATGTTGTACGTATTTTCATTTATAT [XGTACX_site4855],8.93 ± 0.28
12,ATTTAAAAAAGAAAGGTGCATTTCAATAATGTAAAA [GTGCAC_site9585],8.62 ± 0.15
13,TTGATATTTTTTTTATGTACACATGTTCATATTTTT [XGTACX_site8095],8.81 ± 0.37
14,TCACATATTATCTTTACACACTATAAATAAGTTTTA [CACACA_site7335],8.56 ± 0.46
15,ATAATTTGATGGTTAACACACATATAGATTATAGAT [CACACA_site7200],8.52 ± 0.45
16,TTTTTTTCTTTTTGAGGTACGCATTATTTTATTTGT [XGTACX_site6996],8.49 ± 0.43
17,AAAAAAATGAAACACACACACACATATATATATATA [CACACA_site1043],10.1 ± 0.26
18,AAACAATTACACATATGTATGTATATATATATATAT [TGCATGCA_negctrl_site536],10.1 ± 0.42
19,ACAAAGTTTATAGAACGTACATACTTACACATATTT [XGTACX_site556],8.41 ± 0.51
20,TTATTATATATATCTCGTACGTGTATACGCCTACCA [XGTACX_site8375],8.87 ± 0.45
21,TGTTATATTTCAAATTGTACTAATCTAATTAATAAA [XGTACX_site604],8.19 ± 0.33
22,AAAGATTGCGATGGTTGTACTTTTCTATATTTTTTT [XGTACX_site3492],8.63 ± 0.59
23,CTAAAATACGAACACACACACACATATAAATAAATA [CACACA_site7872],8.77 ± 0.57

row,Sequence,gcPBM binding intensity (ln)
1,TATACTTCTTATTAAATGAGTAGTATATATTATATA [TGCATGCA_negctrl_site299],8.06 ± 0.37
2,CTATTTCATAAACACACACACACAAACAAACATATA [CACACA_site8234],8.88 ± 0.58
3,AAATAATACCAAATGTGTACTTATTTCACTAATAGA [XGTACX_site7571],8.38 ± 0.28
4,GGAATAATAAAATTATGTACATAAGAATCATATACT [XGTACX_site6810],8.65 ± 0.4
5,ATATATACTTATATTTGTACACAAAGGTATCTCTAG [XGTACX_site3805],8.49 ± 0.37
6,AGTTTTATATAAGCTTGTACTTAATATTATTAAGTA [XGTACX_site5919],8.56 ± 0.23
7,AAAAAAAAAAATCGCTGTACTTCTAAAGGTGTGTTA [XGTACX_site843],8.29 ± 0.52
8,CAAACAAACGGACACACACACACACCCAAAAATGAT [CACACA_site5363],8.67 ± 0.48
9,ACGGACTTAAAATACACACACACCAAAAAAAAAAAA [CACACA_site7304],8.41 ± 0.63
10,TTTGATAAATTATACACACACAATATATATAAAATA [CACACA_site2023],8.44 ± 0.43
11,AATAATATATAATAATGTACAAAAAAAAAAAAAAAA [XGTACX_site4158],8.23 ± 0.53
12,AAGCTTTGGTGTTATGCATGCAATTAAACTATTAGT [TGCATGCA_site277],9.68 ± 0.16
13,TTTTATTTTTTAGTAGTACACACTTTTTGTACCTTT [CACACA_site599],8.71 ± 0.41
14,TATTATATATATAACTGTACGTTTATAATATAAAAA [XGTACX_site3778],8.31 ± 0.45
15,TTTCTTTTTTTTTTTTGTACATATTTTAATTATTTT [XGTACX_site8676],8.68 ± 0.47
16,TATTTTAATTAATATACACACGCTTATATATATATA [CACACA_site7909],9.85 ± 0.18
17,TACAAACTATGATGCACACATATATATCTGTATCCA [CACACA_site4809],8.66 ± 0.2
18,AGTGTTAAAAATGAGGGTACATATAAAATACAGTTC [XGTACX_site457],8.85 ± 0.4
19,TAATCATTTTAGCTTACACACAAAATTTGGTTATAA [CACACA_site5604],8.37 ± 0.41
20,ACAGGATTGGTTCAAACACACATATTATATGACTAT [CACACA_site4536],8.57 ± 0.68
21,ATTCCACCTTAAAACTGTACTTTCTCAATCTTTTAT [XGTACX_site796],8.95 ± 0.46
22,CATATATAAATATGTATGCACTTTAACAAAATGTAT,8.39 ± 0.16
23,ATATTTATTTATATGTGTACTTATGTTTATATAAAA [XGTACX_site4250],8.56 ± 0.42

row,Sequence,gcPBM binding intensity (ln)
1,GGAATTATAATAAATGGTACACATAAAAAAAAAAAA [XGTACX_site8343],8.77 ± 0.59
2,ATAAAGTAGATATTTTGTACGCAGGTTGTATATATT [XGTACX_site1464],8.75 ± 0.31
3,TACTTTACTAATATATATAGGAGAGTATACATGAAA [CACACA_negctrl_site63],8.63 ± 0.48
4,ATTATGTTATATACACGTACGTGTGCTTTATAATTA [XGTACX_site2728],9.02 ± 0.33
5,TAATAAATAGGACACACACACATATATATATATTAT [CACACA_site4891],8.87 ± 0.52
6,AAAGAAGGATAATAATGTACAAGCAAAAAAATAAAA [XGTACX_site466],8.88 ± 0.19
7,AATATGTGAATATAATCACACACAATACGGAAACAC [CACACA_site8875],9.37 ± 0.22
8,CTTTTTTTAATGATAACACACATGTTGTGCATAGAC [CACACA_site3270],8.98 ± 0.16
9,AAATAATTATTTATCACACATATGTATTTATATATA [CACACA_site4589],8.62 ± 0.45
10,AACATATATATAATATGTACATAATATATATAAATG [XGTACX_site1161],8.52 ± 0.3
11,ACATATATTTCAAAGTGTACGCACAATTTTTTTTAC [XGTACX_site6166],8.77 ± 0.25
12,ATTTCAACAAATATAACACACAATGGATAAGAATAA [CACACA_site1974],8.84 ± 0.48
13,GTAAGAACACTTTTGTGGTTACTTAAAAGTGTATAT [GTGCAC_negctrl_site422],8.27 ± 0.43
14,TTATTATTTTTTAACACACACATATATATTATATCT [CACACA_site4906],8.62 ± 0.4
15,TTAGTTTCCCAAATATGTACATAAATATAAATCATA [XGTACX_site2746],8.58 ± 0.34
16,AATACAGTTAGAGAAAGTACACAACTAATATACATA [XGTACX_site8814],8.72 ± 0.39
17,TGCTTATATGTTGTTACACACTAAAATAGTTAGATA [CACACA_site1277],8.54 ± 0.47
18,AATACACGCAGACACACACACAAAAAAAAAAAAAAA [CACACA_site6384],8.3 ± 0.4
19,ATTTTGTTATGAAACACACACATATAAATATAAATA [CACACA_site7679],8.51 ± 0.3
20,AATTGTGCATTATATTGTACACGTGTTGTATATATT [XGTACX_site975],9.075 ± 0.078
21,TTGAATATGGTTACATGTACGTATCAATATTTTTTA [XGTACX_site4247],8.34 ± 0.43
22,TATATAAAACATGGGTGTACCAACATAAATCATATA [XGTACX_site2320],8.78 ± 0.43
23,TATACATTATTATTATGTACTTAAATATATATTATA [XGTACX_site5173],8.35 ± 0.34

row,Sequence,gcPBM binding intensity (ln)
1,ATTAACACATTTAAGTGTACATATATAAATATATAT [XGTACX_site7098],8.29 ± 0.26
2,TGTGCACGTTCTGTGACACACATTTAAATGTGCTTA [CACACA_site176],8.62 ± 0.35
3,GGAACGTATATTTTCACACACTCTCAAAAGTACAAG [CACACA_site2301],8.66 ± 0.37
4,GAAACAAAATTATTTTGTACATATGACTGTAGATAT [XGTACX_site972],8.8 ± 0.28
5,ATATAACTCAAGGGCACACATATACCTTTCCTTTTT [CACACA_site4390],8.81 ± 0.43
6,ATATATATATATAGTTGTACTTAATTTTATATGTTA [XGTACX_site5256],10.2 ± 0.15
7,AAACTTATAAAAAGTAGTACCATAAAATAATACATA [XGTACX_site6523],8.36 ± 0.16
8,TTTTACAAATATTACTGTACACATTTTCATATAATT [XGTACX_site17],8.73 ± 0.35
9,GTGAAATTATTTCCGTGTACACATAAATATATATTT [XGTACX_site3989],9.325 ± 0.021
10,CCTTGATATATATAAAGTACATATATATATATATAT [XGTACX_site4325],10.2 ± 0.24
11,TATATTATTTATTAGACACACATTATTAAAATATTT [CACACA_site4737],8.21 ± 0.31
12,TGTTGTATATCTCTATATAGCTATATTGTATATATA [TGCATGCA_negctrl_site323],8.62 ± 0.38
13,AGTATACAGATATATACACACATATTTATATTTATA [CACACA_site6394],8.22 ± 0.41
14,CATACATACCTATATACACACATATAAAATAATATA [CACACA_site7290],8.66 ± 0.28
15,TCTATATGTTGATTCACACATAAAGAATAAATAAAA [CACACA_site6017],8.48 ± 0.45
16,GGCAACATTTGAAACACACACACATACAAACAAACA [CACACA_site3307],8.94 ± 0.36
17,TGTTATTATTTGTACACACACATATATATCCTTGTT [CACACA_site3616],8.93 ± 0.3
18,TATATGAACTTATATACACACCATTTTTGTAAATCT [CACACA_site4547],8.38 ± 0.33
19,AACACGCGCAGACACACACACACACCCACATATATA [CACACA_site2205],8.79 ± 0.59
20,TATAATATATTATATACACACATTATGAAATCCACA [CACACA_site1330],8.57 ± 0.44
